According to the RNAGym collection of RNA variant scans (doi:10.1093/nar/gkz1192):
Read counts are not given, so values of variants with three or more changes are uncertain.

B1: CPEB3 Ribozyme (parent)
chain: UAACAGGGGGCCACAGCAGAAGCGUUCACGUCGCAGCCCCUGUCAGAUUCUGGUGAAUCUGCGAAUUCUGCUGUAUAUCUC

Variants of: B1
Assay: self-cleavage, relative activity (ratio to wild type); higher = more cleavage; in vitro, sequencing
How it was run: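 For each CPEB3 ribozyme variant, relative activity is its cleaved/total read fraction divided by the unmutated ribozyme's. Barcoded error-prone PCR libraries were transcribed by T7 RNA polymerase (5 hours, 37°C) and held in DNase I for 15 min before an EDTA stop, with cleavage occurring throughout. Template-switching reverse transcription and Illumina sequencing were used to read the RNAs. A 5-read minimum applied, and results are the mean of three batches.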
Variant U26C U66C U69A A75G has a self-cleavage of 0.06. Work on U26C U31A A57G yielded a self-cleavage of 0.25. In the case of U26G U48C A56G G61A U72C, the self-cleavage is reported as 0.03. Variant U26C U31C U74C A77G has a self-cleavage of 0.64. In the case of U26C U54C A77G, the self-cleavage is reported as 0.3. Variant U26C U31A A35G U72A has a self-cleavage of 0.13. For U26C U31C U66G U80C, the self-cleavage was 0.14. Variant U26C U43C U66C has a self-cleavage of 0.26. For U26C U41C U67G A75G A77G, the self-cleavage was 0.07. Work on U26C U31A U69A yielded a self-cleavage of 0.16. Work on U26C U43A A57G U69A yielded a self-cleavage of 0.23. Variant U26C U31A U58A C59A has a self-cleavage of 0.08. Variant U26C U43C U60C A65G has a self-cleavage of 0.17. With U26C G63U U80C the self-cleavage was 0.54. In the case of U26C U43C A45U U48C A56G C62A, the self-cleavage is reported as 0.12. Variant U26C U60C U66A U67A U76C A77U has a self-cleavage of 0.15. U26C U48C U54A U74A showed a self-cleavage of 0.5. Work on U26G C34U U49G C62U C68G yielded a self-cleavage of 0.04. With U26C U41C U80A the self-cleavage was 0.48. Variant U26C U54C A65G U76C has a self-cleavage of 0.32. U26C U51A U72C showed a self-cleavage of 0.72. U26C U54A A65G showed a self-cleavage of 0.18. For U26G A28C A45U U60C U78C, the self-cleavage was 0.06. With C27A A28G U41C A65G the self-cleavage was 0.27. Work on U26C U31A A35G U54C U69A yielded a self-cleavage of 0.13. With U26C U60A A64G the self-cleavage was 0.15. Work on U26C U31C A47G U66C U72C C81U yielded a self-cleavage of 0. C27A A28G U31A gave a self-cleavage of 0.06. U26C U31C U60C U78C gave a self-cleavage of 0.24. In the case of U26G U43G A45U U78C, the self-cleavage is reported as 0.3. U26G G33C U49G U60A A65G U69A U72C gave a self-cleavage of 0.04. U26C U31C U43A A65G showed a self-cleavage of 0.13. With U26C G36A U60C A77U the self-cleavage was 0.1. Work on U26C U49C A64G U76C U80C yielded a self-cleavage of 0.13. For U26C U31C A45G U51A A56G U72A, the self-cleavage was 0.04. U26G U31C U69C U80A gave a self-cleavage of 0.27. For U26C U41C A45U U49C U60C, the self-cleavage was 0.06. U26C U31A C50G A75G gave a self-cleavage of 0.06. With U26C U31C A45G U67C the self-cleavage was 0.14. In the case of U26C U41A A47G U72C, the self-cleavage is reported as 0.09. Work on U26C U69C C71A U72C yielded a self-cleavage of 0.12. Variant U26C U69C U72C U76A A77C has a self-cleavage of 0.14. With U26C U41A A57G the self-cleavage was 0.21. With U26G A28C C32U A35G U51C C71A the self-cleavage was 0.04. Variant U26C G55U U67C U72A U80A has a self-cleavage of 0.08. Work on U26C U31A U49C U51C U67C U72C yielded a self-cleavage of 0.05. With U26C U72A A77G the self-cleavage was 0.6. For U26C U31A U49A U58C U67C U80C, the self-cleavage was 0.07. Variant U26C U41A C44U has a self-cleavage of 0.08. With U26C U66C U69C the self-cleavage was 0.32. Variant U26C U66C U69A has a self-cleavage of 0.14. With U26C U72C A75U the self-cleavage was 0.49. Variant U26C U72C A75G has a self-cleavage of 0.78. Work on U26C U67C A75G U80C yielded a self-cleavage of 0.29. U26C U43C A57G U66A gave a self-cleavage of 0.09. With U26C U43C A45U U69C the self-cleavage was 0.14. U26C U31C A35U U69C gave a self-cleavage of 0.29. Work on U26C U60C A65G U69A yielded a self-cleavage of 0.15. In the case of U26C G53A U54C U74C U78A, the self-cleavage is reported as 0.37. U26G A35G A56G U58C U80A showed a self-cleavage of 0.45. With U26C G52A U67A A75U U80C the self-cleavage was 0.21. U26C U69C U72A U78C gave a self-cleavage of 0.23. Work on U26C U60C U69C yielded a self-cleavage of 0.32. For U26C U67G C71U, the self-cleavage was 0.16. With U26G A45G U72A the self-cleavage was 0.2. With U26C U41A U51C U58C the self-cleavage was 0.09. U26C U43G G53A showed a self-cleavage of 0.2. U26C U41G U43C G70A U76C U80C gave a self-cleavage of 0.16. For U26C U31A A64G U69A, the self-cleavage was 0.14. With U26C U51C U78C the self-cleavage was 0.32. For U26C U54C U72A A77G, the self-cleavage was 0.49. Variant U26C U31A G52A A56G U60A U66C U72C has a self-cleavage of 0.04. Variant U26C U49C U51C has a self-cleavage of 0.21. For U26C U31C U41A U80A, the self-cleavage was 0.28. With U26C G36C U67C U78G the self-cleavage was 0.09. With U26G U41C C50U the self-cleavage was 0.08. U26C U31C C62G gave a self-cleavage of 0.1. In the case of U26C U41G G42A U49C U54C A65G, the self-cleavage is reported as 0.13. In the case of U26C U31C G36A, the self-cleavage is reported as 0.13. For U26C U49C U51A U54A U69C, the self-cleavage was 0.64. With U26C U43G U76C the self-cleavage was 0.52. U26C G33A U41C U49C U66C U74C gave a self-cleavage of 0.09. In the case of U26C U41A G63A A65C U67C, the self-cleavage is reported as 0.1. Variant U26C U69A U72C U76A C81A has a self-cleavage of 0.08.
